# Test results taken from the antibiotic and cytotoxicity screens of Wong et al. (2023).
# The list shows a part of the results.
# System: HSkMC (human skeletal muscle cells)
# Test: cytotoxicity call (relative viability < 0.9)
# Conditions: 10 µM
row,Compound,cytotoxicity call
1,C[C@@H]1CN([C@@H](C)CO)C(=O)c2cc(NC(=O)CCCN(C)C)ccc2O[C@H]1CN(C)Cc1ccc(Oc2ccccc2)cc1,inactive
2,C[C@]12C[C@@H]3C[C@](C)(C1)C[C@@](N)(C3)C2,inactive
3,C[C@@H]1CCCCO[C@H](CN(C)Cc2ccccc2)[C@@H](C)CN([C@@H](C)CO)C(=O)c2cc(NS(=O)(=O)c3cccs3)ccc2O1,inactive
4,CO[C@@H]1CN(C)C(=O)c2ccc(NC(=O)Nc3ccc(Cl)cc3)cc2OC[C@H](C)N(C(=O)Nc2c(C)noc2C)C[C@@H]1C,inactive
5,Cc1ccc(S(=O)(=O)Nc2ccc3c(c2)C(=O)N([C@H](C)CO)C[C@@H](C)[C@@H](CN(C)C(=O)c2ccccc2)OCCCC[C@@H](C)O3)cc1,inactive
6,C[C@@H]1CCCCO[C@@H](CN(C)C(=O)Nc2ccc(F)cc2)[C@@H](C)CN([C@H](C)CO)C(=O)c2cc(NC(=O)Nc3ccc(C(F)(F)F)cc3)ccc2O1,inactive
7,CC(=O)OC1CC(OC(C)=O)C2(C)C(CC(=O)C3(C)C2CCC2(C)C(c4ccoc4)OC(=O)C4OC423)C1(C)C (centres undefined),inactive
8,COc1ccc(CN(C)C[C@H]2OCCCC[C@H](C)Oc3ccc(NC(=O)NC4CCCCC4)cc3C(=O)N([C@@H](C)CO)C[C@@H]2C)cc1,inactive
9,COc1ccc(NC(=O)Nc2ccc3c(c2)C(=O)N([C@@H](C)CO)C[C@@H](C)[C@H](CN(C)C(=O)Nc2ccccc2)OCCCC[C@H](C)O3)cc1,inactive
10,C=CCOC(=O)[C@H]1[C@@H]2C(=O)O[C@@H](c3ccccc3)[C@@H](c3ccccc3)N2[C@@H](c2ccc(OCCOC(=O)[C@H]3C[C@H]4C(=O)N[C@@H](Cc5ccccc5)C(=O)N4[C@H]3c3ccc(O)cc3)cc2)[C@]12C(=O)Nc1ccc(I)cc12,inactive
11,Cc1ccc(S(=O)(=O)N(C)C[C@@H]2OCCCC[C@H](C)Oc3ccc(NC(=O)NC4CCCCC4)cc3C(=O)N([C@@H](C)CO)C[C@@H]2C)cc1,inactive
12,Cc1noc(C)c1S(=O)(=O)Nc1cccc2c1O[C@@H](CN(C)S(=O)(=O)c1cn(C)cn1)[C@@H](C)CN([C@H](C)CO)C2=O,inactive
13,C[C@@H]1CCCCO[C@H](CN(C)C(=O)Nc2ccc(C(F)(F)F)cc2)[C@@H](C)CN([C@H](C)CO)C(=O)c2cc(NC(=O)CCCCCC(=O)Nc3ccccc3N)ccc2O1,inactive
14,C[C@@H]1CN([C@H](C)CO)C(=O)c2cc(NC(=O)NC3CCCCC3)ccc2O[C@@H](C)CCCCO[C@@H]1CN(C)Cc1ccc(C(F)(F)F)cc1,inactive
15,Cc1ccc(S(=O)(=O)N(C)C[C@H]2OCCCC[C@H](C)Oc3ccc(NC(=O)NC4CCCCC4)cc3C(=O)N([C@H](C)CO)C[C@H]2C)cc1,inactive
16,Clc1ccc(Cn2ccnc2)cc1,inactive
17,CO[C@H]1CN(C)C(=O)c2cc(NC(=O)Nc3ccccc3)ccc2OC[C@@H](C)N(C(=O)CN(C)C)C[C@@H]1C,inactive
18,CC(C)(C)S(=O)N1Cc2cc(C(=O)N[C@@H]3CCN(Cc4ccccc4)C3)nc(-c3cccc(-c4cccc(F)c4)c3)c2[C@@H]1CCO (some centres undefined),inactive
19,C[C@H]1CN([C@@H](C)CO)C(=O)c2ccccc2-c2ccccc2CO[C@@H]1CN(C)C(=O)Nc1ccc(F)cc1,inactive
20,O=C(C[C@@H]1C[C@@H]2c3cc(NC(=O)c4ccc5c(c4)OCO5)ccc3O[C@@H]2[C@@H](CO)O1)NCc1ccc(Oc2ccccc2)cc1,active
21,C[C@H](CO)N1C[C@H](C)[C@@H](CN(C)S(=O)(=O)c2ccccc2F)Oc2ncc(C#Cc3ccncc3)cc2C1=O,inactive
22,CCCNC(=O)Cn1c(=O)n(C)c2ccccc21,inactive
23,CO[C@H]1CN(C)C(=O)c2cc(NC(=O)NC3CCCCC3)ccc2OC[C@H](C)N(CCc2ccccc2)C[C@@H]1C,inactive
24,CCCN(C)C[C@H]1OCCCC[C@@H](C)Oc2ccc(NC(=O)c3ccccc3)cc2C(=O)N([C@H](C)CO)C[C@H]1C,inactive
25,Cc1noc(C)c1S(=O)(=O)N(C)C[C@@H]1OCCCC[C@@H](C)Oc2ccc(NC(=O)Nc3ccccc3)cc2C(=O)N([C@H](C)CO)C[C@H]1C,inactive
26,CCCC(=O)Nc1ccc2c(c1)C(=O)N(C)C[C@@H](OC)[C@H](C)CN(S(=O)(=O)c1cn(C)cn1)[C@H](C)CO2,inactive
27,CN(C)CCOC(c1ccccc1)c1ccccc1.Cl,inactive
28,COc1ccc2c3c([nH]c2c1)[C@@H](CO)N(Cc1ccncc1)C[C@]13CCN(CC1)Cc1ccc(cc1)-c1ccccn1,inactive
29,O=C(NCc1nc2ccccc2[nH]1)C1=C[C@H](c2ccc(Br)cc2)C[C@H](OCc2ccc(CO)cc2)O1,inactive
30,C[C@H](O)C#Cc1ccc2c(c1)O[C@@H](CN(C)C(=O)C1CCCCC1)[C@@H](C)CN([C@@H](C)CO)S2(=O)=O,inactive

# System: S. aureus RN4220
# Test: growth inhibition call (relative growth <= 0.2)
# Conditions: 50 µM
row,Compound,growth inhibition call
1,Cc1ccc(S(=O)(=O)N(C)C[C@H]2OCCCC[C@H](C)Oc3ccc(NC(=O)Nc4ccc(C(F)(F)F)cc4)cc3C(=O)N([C@@H](C)CO)C[C@@H]2C)cc1,inactive
2,C[C@@H]1CN([C@H](C)CO)C(=O)c2cccc(NC(=O)c3ccncc3)c2O[C@H]1CN(C)S(=O)(=O)c1ccc(F)cc1,inactive
3,C[C@@H](N)CCc1ccc(Br)cc1,inactive
4,C[C@@H]1CN([C@H](C)CO)C(=O)c2cccc(NS(=O)(=O)c3cccs3)c2O[C@@H]1CN(C)S(=O)(=O)c1ccc(F)cc1,inactive
5,Cc1noc(C)c1S(=O)(=O)Nc1ccc2c(c1)C(=O)N([C@@H](C)CO)C[C@@H](C)[C@H](CN(C)Cc1ccc(C(F)(F)F)cc1)OCCCC[C@@H](C)O2,inactive
6,Cc1noc(C)c1NC(=O)Nc1ccc2c(c1)CC(=O)N([C@H](C)CO)C[C@@H](C)[C@H](CN(C)Cc1ccc(C(=O)Nc3ccccc3N)cc1)O2,inactive
7,N[C@H]1CC[C@@H](NC(=O)[C@H]2CCc3ccccc32)CC1,inactive
8,Nc1nc(/C(=N/O)C(=O)N[C@@H]2C(=O)N3C(C(=O)O)=C(/C=C4\CCN([C@@H]5CCNC5)C4=O)CS[C@H]23)ns1,inactive
9,C[C@@H]1CN([C@@H](C)CO)C(=O)c2cc(NC(=O)Cn3cnnn3)ccc2O[C@@H]1CN(C)S(=O)(=O)c1ccc(F)cc1,inactive
10,C[C@@H]1CN([C@H](C)CO)C(=O)c2cc(NS(=O)(=O)c3ccc(Cl)cc3)ccc2O[C@@H](C)CCCCO[C@@H]1CN(C)Cc1ccc(C(F)(F)F)cc1,inactive
11,C[C@@H]1CN([C@@H](C)CO)C(=O)c2cc(NC(=O)CCCN(C)C)ccc2O[C@H]1CN(C)Cc1ccc(Oc2ccccc2)cc1,inactive
12,C[C@]12C[C@@H]3C[C@](C)(C1)C[C@@](N)(C3)C2,inactive
13,C[C@@H]1CCCCO[C@H](CN(C)Cc2ccccc2)[C@@H](C)CN([C@@H](C)CO)C(=O)c2cc(NS(=O)(=O)c3cccs3)ccc2O1,inactive
14,CO[C@@H]1CN(C)C(=O)c2ccc(NC(=O)Nc3ccc(Cl)cc3)cc2OC[C@H](C)N(C(=O)Nc2c(C)noc2C)C[C@@H]1C,inactive
15,Cc1ccc(S(=O)(=O)Nc2ccc3c(c2)C(=O)N([C@H](C)CO)C[C@@H](C)[C@@H](CN(C)C(=O)c2ccccc2)OCCCC[C@@H](C)O3)cc1,inactive
16,C[C@@H]1CCCCO[C@@H](CN(C)C(=O)Nc2ccc(F)cc2)[C@@H](C)CN([C@H](C)CO)C(=O)c2cc(NC(=O)Nc3ccc(C(F)(F)F)cc3)ccc2O1,inactive
17,CC(=O)OC1CC(OC(C)=O)C2(C)C(CC(=O)C3(C)C2CCC2(C)C(c4ccoc4)OC(=O)C4OC423)C1(C)C (centres undefined),inactive
18,COc1ccc(CN(C)C[C@H]2OCCCC[C@H](C)Oc3ccc(NC(=O)NC4CCCCC4)cc3C(=O)N([C@@H](C)CO)C[C@@H]2C)cc1,inactive
19,COc1ccc(NC(=O)Nc2ccc3c(c2)C(=O)N([C@@H](C)CO)C[C@@H](C)[C@H](CN(C)C(=O)Nc2ccccc2)OCCCC[C@H](C)O3)cc1,inactive
20,C=CCOC(=O)[C@H]1[C@@H]2C(=O)O[C@@H](c3ccccc3)[C@@H](c3ccccc3)N2[C@@H](c2ccc(OCCOC(=O)[C@H]3C[C@H]4C(=O)N[C@@H](Cc5ccccc5)C(=O)N4[C@H]3c3ccc(O)cc3)cc2)[C@]12C(=O)Nc1ccc(I)cc12,inactive
21,Cc1ccc(S(=O)(=O)N(C)C[C@@H]2OCCCC[C@H](C)Oc3ccc(NC(=O)NC4CCCCC4)cc3C(=O)N([C@@H](C)CO)C[C@@H]2C)cc1,inactive
22,Cc1noc(C)c1S(=O)(=O)Nc1cccc2c1O[C@@H](CN(C)S(=O)(=O)c1cn(C)cn1)[C@@H](C)CN([C@H](C)CO)C2=O,inactive
23,C[C@@H]1CCCCO[C@H](CN(C)C(=O)Nc2ccc(C(F)(F)F)cc2)[C@@H](C)CN([C@H](C)CO)C(=O)c2cc(NC(=O)CCCCCC(=O)Nc3ccccc3N)ccc2O1,inactive
24,C[C@@H]1CN([C@H](C)CO)C(=O)c2cc(NC(=O)NC3CCCCC3)ccc2O[C@@H](C)CCCCO[C@@H]1CN(C)Cc1ccc(C(F)(F)F)cc1,inactive
25,Cc1ccc(S(=O)(=O)N(C)C[C@H]2OCCCC[C@H](C)Oc3ccc(NC(=O)NC4CCCCC4)cc3C(=O)N([C@H](C)CO)C[C@H]2C)cc1,inactive
26,Clc1ccc(Cn2ccnc2)cc1,inactive
27,CO[C@H]1CN(C)C(=O)c2cc(NC(=O)Nc3ccccc3)ccc2OC[C@@H](C)N(C(=O)CN(C)C)C[C@@H]1C,inactive
28,CC(C)(C)S(=O)N1Cc2cc(C(=O)N[C@@H]3CCN(Cc4ccccc4)C3)nc(-c3cccc(-c4cccc(F)c4)c3)c2[C@@H]1CCO (some centres undefined),inactive
29,C[C@H]1CN([C@@H](C)CO)C(=O)c2ccccc2-c2ccccc2CO[C@@H]1CN(C)C(=O)Nc1ccc(F)cc1,inactive
